Assay results published in paper PMC13083723 (Patterns, 2026).
The whole screen tested about 5,400 compounds, of which about 190 (3.5%) showed an effect of 50% or more. The list shows a part of the results. Starred links: 1 amine or outer side, 2 acyl side, 3 side chain; linkers in the order of their positions; H or OH if unused. Positions of bridges follow the written chain, without caps; N, C: chain ends. Non-standard residues stand in square brackets, D forms with d. Residues, ends and D or L forms follow the SMILES beside them. Chains are numbered I, II in the order given. Actinocin(9to1) = Cc1c2oc3c(C)ccc(C(=O)[*:1])c3nc-2c(C(=O)[*:2])c(N)c1=O; NMeV = CN[C@H](C(=O)O)C(C)C; Sar = CNCC(=O)O

System: Vero-E6
Test: primary screen, phospholipidosis by LipidTOX staining; higher = more effect of the substance
Conditions: 10 µM
Method in brief: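 Drug-induced phospholipidosis detected with HCS LipidTOX Red reagent in Vero-E6 cells. Compounds tested at 10 μM, with amiodarone (10 μM) as positive control and DMSO (0.1 v/v %) as vehicle.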

**Q.** OCC(O)[C@H]1O[C@@H]2O[C@H](C(Cl)(Cl)Cl)O[C@@H]2[C@H]1O (stereo partly drawn) was tested. Which result_ITMP did it give?
**A.** Its result_ITMP is -13.7%.

**Q.** For COc1cccc([C@]2(O)CCCC[C@H]2CN(C)C)c1, which result_ITMP is on record?
**A.** Its result_ITMP is 1.12%.

**Q.** For CC(=O)NC[C@H]1CN(c2ccc(N3CCOCC3)c(F)c2)C(=O)O1, which result_ITMP is on record?
**A.** Its result_ITMP is -4.92%.

**Q.** With CCCCC1(C2CCCC2)Cc2cc(OCCCC(=O)O)c(Cl)c(Cl)c2C1=O (stereo not drawn) as the molecule, how does the result_ITMP read?
**A.** Its result_ITMP is -3.19%.

**Q.** How did the result_ITMP turn out when O=c1nc[nH]c2c([C@@H]3N[C@H](CO)[C@@H](O)[C@H]3O)c[nH]c12 was run?
**A.** Its result_ITMP is -0.15%.

**Q.** Which result_ITMP does the source give for Cc1c2oc3c(C)ccc(C(=O)N[C@@H]4C(=O)N[C@H](C(C)C)C(=O)N5CCC[C@H]5C(=O)N(C)CC(=O)N(C)[C@@H](C(C)C)C(=O)O[C@@H]4C)c3nc-2c(C(=O)N[C@@H]2C(=O)N[C@H](C(C)C)C(=O)N3CCC[C@H]3C(=O)N(C)CC(=O)N(C)[C@@H](C(C)C)C(=O)O[C@@H]2C)c(N)c1=O (I: TVP[Sar][NMeV] / II: TVP[Sar][NMeV]; ester I:1-I:C, II:1-II:C; linker I:N-II:N via Actinocin(9to1)) here?
**A.** Its result_ITMP is 10.9%.

**Q.** With CC(C)Cc1ccc([C@@H](C)C(=O)NS(C)(=O)=O)cc1 as the molecule, how does the result_ITMP read?
**A.** The result_ITMP was -1.78%.

**Q.** For CCOc1ccc(S(=O)(=O)[O-])c2cccnc12, which result_ITMP is on record?
**A.** The result_ITMP was -2.55%.

**Q.** For COc1cc(CN2CCN(c3ccc(F)cc3)CC2)cc(OC)c1OC, which result_ITMP is on record?
**A.** Its result_ITMP is -5.69%.

**Q.** For COc1cc(C2Oc3ccc(C4Oc5cc(O)cc(O)c5C(=O)C4O)cc3OC2CO)ccc1O (stereo not drawn), which result_ITMP is on record?
**A.** Its result_ITMP is -1.08%.

**Q.** C=C1CC[C@@]2(O)[C@H]3Cc4ccc(O)c5c4[C@@]2(CCN3CC2CC2)[C@H]1O5 was tested. Which result_ITMP did it give?
**A.** The result_ITMP was -4.83%.

**Q.** For O=S(=O)(c1cccc2c(Cl)cccc12)N1CCCNCC1, which result_ITMP is on record?
**A.** The result_ITMP was 47.2%.

**Q.** How did the result_ITMP turn out when Clc1cccc(-n2nnnc2NCc2ccccc2Oc2ccccn2)c1Cl was run?
**A.** Its result_ITMP is -2.05%.

**Q.** Which result_ITMP does the source give for CC1(C)CC(=O)C(C2C3=C(CC(C)(C)CC3=O)Oc3ccccc32)C(=O)C1 (stereo not drawn) here?
**A.** Its result_ITMP is -1.83%.

**Q.** How did the result_ITMP turn out when CN1CC(=O)N=C1NC(=O)Nc1cccc(Cl)c1 was run?
**A.** The result_ITMP was -1.76%.

**Q.** Which result_ITMP does the source give for CCOCCn1c(N2CCCN(C)CC2)nc2ccccc21 here?
**A.** The result_ITMP was 3.32%.

**Q.** CC[C@]12C=CCN3CC[C@@]4(c5cc([C@@]6(C(=O)OC)C[C@H]7C[C@@H](C(C)(F)F)CN(Cc8c6[nH]c6ccccc86)C7)c(OC)cc5N(C)[C@H]4[C@@](O)(C(=O)OC)[C@@H]1OC(C)=O)[C@@H]32 was tested. Which result_ITMP did it give?
**A.** Its result_ITMP is 49.7%.

**Q.** For CC[C@H](C)C(=O)O[C@H]1C[C@H](O)C=C2C=C[C@H](C)[C@H](CC[C@@H](O)C[C@@H](O)CC(=O)O)[C@H]21, which result_ITMP is on record?
**A.** Its result_ITMP is 3.18%.

**Q.** Which result_ITMP does the source give for Fc1ccc(C(OCCN2CCN(C/C=C/c3ccccc3)CC2)c2ccc(F)cc2)cc1 here?
**A.** Its result_ITMP is 20.6%.

**Q.** For O=C1CC2(CCCC2)CC(=O)N1CCCCNCC1COc2ccccc2O1 (stereo not drawn), which result_ITMP is on record?
**A.** The result_ITMP was -0.42%.

**Q.** CC1=C(C(=O)O)N2C(=O)[C@@H](NC(=O)[C@H](N)c3ccccc3)[C@H]2SC1 was tested. Which result_ITMP did it give?
**A.** The result_ITMP was 0.57%.

**Q.** Which result_ITMP does the source give for O=[N+]([O-])c1ccc(Cl)c([N+](=O)[O-])c1 here?
**A.** The result_ITMP was 18.8%.

**Q.** Which result_ITMP does the source give for Cc1cccc(C)c1NC(=O)C[N+](C)(C)C here?
**A.** The result_ITMP was 1.04%.

**Q.** How did the result_ITMP turn out when c1ccc2c(c1)OC[C@H](CNCCCOc1ccc3c(c1)OCO3)O2 was run?
**A.** The result_ITMP was 2.27%.

**Q.** With O=C(OCCN1CCCCC1)c1c[nH]c2ccccc12 as the molecule, how does the result_ITMP read?
**A.** Its result_ITMP is 2.28%.

**Q.** Nc1ccccc1NC(=O)c1ccc(CNc2nccc(-c3cccnc3)n2)cc1 was tested. Which result_ITMP did it give?
**A.** Its result_ITMP is 24.7%.

**Q.** For Cc1ccc(S(=O)(=O)/C=C/C#N)cc1, which result_ITMP is on record?
**A.** The result_ITMP was -2.85%.

**Q.** For Cn1nc(-c2ccc(C(F)(F)F)cc2)nc2c(=O)n(C)c(=O)nc1-2, which result_ITMP is on record?
**A.** The result_ITMP was 1.4%.

**Q.** O=C1c2cc(Cl)ccc2OC2CCON12 (stereo not drawn) was tested. Which result_ITMP did it give?
**A.** Its result_ITMP is -3.01%.

**Q.** For O=[N+]([O-])O[C@H]1CO[C@H]2[C@@H]1OC[C@H]2O[N+](=O)[O-], which result_ITMP is on record?
**A.** The result_ITMP was -2.72%.

**Q.** Which result_ITMP does the source give for N=C(N)Nc1ccc(Cl)cc1 here?
**A.** The result_ITMP was -3.38%.

**Q.** Nc1nc(Nc2ccccc2)nc2c1ncn2[C@@H]1O[C@H](CO)[C@@H](O)[C@H]1O was tested. Which result_ITMP did it give?
**A.** The result_ITMP was -1.76%.

**Q.** With O=S1(=O)CCN(CN2CCS(=O)(=O)NC2)CN1 as the molecule, how does the result_ITMP read?
**A.** Its result_ITMP is -1.83%.

**Q.** How did the result_ITMP turn out when COc1cc2cc(c1Cl)N(C)C(=O)C[C@H](OC(=O)C(C)C)[C@]1(C)O[C@H]1[C@H](C)[C@@H]1C[C@@](O)(NC(=O)O1)[C@H](OC)/C=C/C=C(\C)C2 was run?
**A.** The result_ITMP was -0.8%.

**Q.** How did the result_ITMP turn out when Cc1nc(C)c(C)nc1C was run?
**A.** Its result_ITMP is -1.64%.

**Q.** With NS(=O)(=O)C#Cc1ccccc1 as the molecule, how does the result_ITMP read?
**A.** The result_ITMP was -6.54%.

**Q.** CO[C@@H]1[C@H](O)[C@@H](CO)O[C@H]1n1cnc2c(NC3CCCCC3)ncnc21 was tested. Which result_ITMP did it give?
**A.** Its result_ITMP is -1.44%.

**Q.** Cc1ccc(Cl)c(OCC(O)CNC(C)C)c1 (stereo not drawn) was tested. Which result_ITMP did it give?
**A.** The result_ITMP was 21.7%.

**Q.** Which result_ITMP does the source give for Cc1cc(Nc2nc(N[C@@H](C)c3ncc(F)cn3)ncc2Cl)n[nH]1 here?
**A.** Its result_ITMP is -1.15%.

**Q.** With Nc1c(CC(=O)[O-])cccc1C(=O)c1ccc(Br)cc1 as the molecule, how does the result_ITMP read?
**A.** Its result_ITMP is 0.95%.

**Q.** CC(C)C1C2CCC(C2)C1N (stereo not drawn) was tested. Which result_ITMP did it give?
**A.** Its result_ITMP is 1.94%.

**Q.** With O=C(NC(=O)c1c(F)cccc1Cl)NC1c2ccccc2-c2ccccc21 as the molecule, how does the result_ITMP read?
**A.** The result_ITMP was -1.9%.

**Q.** How did the result_ITMP turn out when Cc1ccc(C(=O)C(C)CN2CCCCC2)cc1 (stereo not drawn) was run?
**A.** The result_ITMP was -4.52%.

**Q.** Which result_ITMP does the source give for CC(C)(O)CNc1nc(Nc2ccnc(C(F)(F)F)c2)nc(-c2cccc(C(F)(F)F)n2)n1 here?
**A.** Its result_ITMP is -2.26%.

**Q.** For COc1ccccc1N1CCN(CC(O)COc2cc(OC)c(OC)c(OC)c2)CC1 (stereo not drawn), which result_ITMP is on record?
**A.** The result_ITMP was 0.17%.

**Q.** With N#Cc1cccc(C(=O)Nc2cc(-c3ccccc3)nn2-c2ccccc2)c1 as the molecule, how does the result_ITMP read?
**A.** Its result_ITMP is 13%.

**Q.** O=C(CCCCC(=O)Nc1c(I)cc(I)c(C(=O)O)c1I)Nc1c(I)cc(I)c(C(=O)O)c1I was tested. Which result_ITMP did it give?
**A.** Its result_ITMP is -4.37%.

**Q.** C[C@@H](C(=O)O)c1ccc(-c2ccccc2)c(F)c1 was tested. Which result_ITMP did it give?
**A.** Its result_ITMP is -1.34%.

**Q.** CC(Cc1ccc(O)c(O)c1)C(C)Cc1ccc(O)c(O)c1 (stereo not drawn) was tested. Which result_ITMP did it give?
**A.** The result_ITMP was -7.08%.

**Q.** How did the result_ITMP turn out when C[C@H](O)[C@H](O)[C@H]1CNc2[nH]c(N)nc(=O)c2N1 was run?
**A.** The result_ITMP was -0.69%.

**Q.** How did the result_ITMP turn out when CC1CCC(O)C/C1=C\C=C1/CCCC2(C)C1CCC2C(C)/C=C/C(C)C(C)C (stereo not drawn) was run?
**A.** The result_ITMP was 0.34%.

**Q.** With N[C@@H](CCNCc1ccc(Cl)cc1)C(=O)N1CCCCC1 as the molecule, how does the result_ITMP read?
**A.** Its result_ITMP is 48.5%.

**Q.** How did the result_ITMP turn out when C[C@@H](Oc1cc(-c2cnn(C3CCNCC3)c2)cnc1N)c1c(Cl)ccc(F)c1Cl was run?
**A.** Its result_ITMP is 75%.

**Q.** O[C@H]1CC[C@H](Nc2nc(-c3ccccc3)nc3[nH]ccc23)CC1 was tested. Which result_ITMP did it give?
**A.** Its result_ITMP is -6.29%.
